{
  "source": "the RNAGym collection of RNA variant scans (doi:10.1073/pnas.2313332121)",
  "parents": {"B1": {"name": "TPR 5TU (parent)", "chain": "GGAUCUUCUCGAUCUAACAAAAAAGACAAAUCUGCCACAAAGCUUGAGAGCAUCUUCGGAUGCAGAGGCGGCAGCCUUCGGUGGCGCGAUAGCGCCAACGUUCUCAACUAUGACACGCAAAACGCGUGCUCCGUUGAAUGGAGUUUAUCAUG"}},
  "note": "Variants at the background level are over-represented here.",
  "data": [
    {"variants_of": "B1", "assay": "polymerase ribozyme fitness, log enrichment relative to wild type (log ratio); higher = more active; in vitro selection for triplet polymerase activity", "summary_of_the_method": "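Mutant libraries of both subunits of a heterodimeric triplet polymerase ribozyme were PCR-built, transcribed, and selected once in triplicate, with frozen incubation at −7 °C and capture of gel-excised extended constructs on streptavidin beads before RT-PCR. Illumina sequencing of input and output libraries was filtered to genotypes with ≥10 input reads and ≥1 read per output. Fitness is the logarithm of genotype enrichment over wild-type enrichment, using inverse-variance-weighted replicate averages. The logarithm is base 2.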", "values": [
      {"variant": "GGUUCUUCUCGAUCUAACAAAAAAGACAAAUCUGCCACAAAGCUUGAGAGCAUCUUCGGAUGCAGAGGCGGCAGCCUUCGGUGGCGCGAUAGCACCAACGUUCUCAACUAUGACACGCAAAACGCGUGCUCCGUUGAAUGGAGUUUAUCAUG", "note": "[A3U G94A]", "polymerase ribozyme fitness (log ratio)": -1.21},
      {"variant": "GGUUCUUCUCGAUCUAACAAAAAAGACAAAUCUGCCACAAAGCUUGAGAGCAUCUUCGGAUGCAGAGGCGGCAGCCUUCGGUGGCGCGAUAGCGCCAACGUUCUCAACUAUGACACGCAAAACGCGUGCUCCUUGGAAUGGAGUUUAUCAUG", "note": "[A3U G133U U135G]", "polymerase ribozyme fitness (log ratio)": "≤ -4.2"},
      {"variant": "GGUUCUUCUCGAUCUAACAAAAAAGACAAAUCUGCCACAAAGCUUGAGAGCAUCUUCGGAUGCAGAGGCGGCAGCCUUCGGUAGCGCGAUAGCGCCAACGUUCUCAACUAUGACACGCAAAACGCGUGCUCCGUUGAAUGGAGUUUAUCAUG", "note": "[A3U G83A]", "polymerase ribozyme fitness (log ratio)": -1.47},
      {"variant": "GGUUCAUCUCGAUCUAAUAAAAAAGACAAAUCUGUCACAAAGCUUGAGAGCAUCUUCGGAACCAGAAGCGGCAGCCUUCGGUGGCGCGAUAGCGCCAACGUUCUCAACUAUGACACGCAAAACGCGUCCUCCGUUGAAUGGAGCUUAUCAUG", "note": "[A3U U6A C18U C35U U61A G62C G67A G128C U144C]", "polymerase ribozyme fitness (log ratio)": "≤ -4.2"},
      {"variant": "GGUUCUUCUCGAUCUAACAAAAAAGACAAAUCUACCACAAAGCUUGAGAGCAUCUUCGGAUGCAGAGGCGGCAGCCUUCGGUGGCACGAUAGGGCCAACGUUCUCAACUAUGACACGCAAAACGCGUGCUCCGUUGAAUGUAGUUUAUCAUG", "note": "[A3U G34A G86A C93G G141U]", "polymerase ribozyme fitness (log ratio)": "≤ -4.2"},
      {"variant": "GGUUCUUCUCGAUCUAACAAAAAAGACAAAUCUGCCACAAAGCUUGAGAGCAUCUUCAGAUGCAGAGGCGGCAGCCUUCGGUGGCGCGAUAGCGCGAACGUUCUCAACUAUGACACGCAAAACGCGUGCUCCGUUGAAUGGAGUUUAUCAUG", "note": "[A3U G58A C96G]", "polymerase ribozyme fitness (log ratio)": -1.09},
      {"variant": "GGUUCUUCUCGAUCUAACAAAAAAGACAAAUCUGCCACAAAGCUUGACAGCAUCUUCGGAAGCAGAGGCGGCAGCCUUCGGUGGCGCGAUAGCGCCUACGUUCUCAACUAUGACACGCAAAACGCGUGCUCCGUAGAAUGGAGUUUAUCAUG", "note": "[A3U G48C U61A A97U U135A]", "polymerase ribozyme fitness (log ratio)": "≤ -4.2"},
      {"variant": "GGUUCUUCUCGAUCUAACAAAAAAGACAAAUCUGCCACAAAGCUUGAGAGCAUCUUCGGAUGCAGAGGCGGCAGCCUUCGGUGGCGCGAUAGGGCCAACGUUCUCAACUAUGACACGCAAAACGCGUGCUCCGUUGAAUGGAGUUUAUCAUG", "note": "[A3U C93G]", "polymerase ribozyme fitness (log ratio)": -2.5},
      {"variant": "GGUUCUUCUCGAUCUAACAAAAAAGACAAAUCUGCCACAAAGCUUGAGAGCAUCUUCGGAUGCAGAGGCGGCAGCCUUCGGUGGCGCGAUAGUGCCAACGUUCUCAACUAUGACACGCAAAACGCGUGCUCCGUUGAAUGGAGUUUAUCAUG", "note": "[A3U C93U]", "polymerase ribozyme fitness (log ratio)": -1.81},
      {"variant": "GGUUCUUCUCGAUCUAACAAAAAAGACAAAUCUGCCACAAAGCUUGAGAGCAUCUUCGGAUGCAGAGGCGGCAGCCUUCGGUGGCGUGAUAGCGCCAACGUUCUCAACUAUGACACGCAAAACGCGUGCUCCGUUGAAUGGAGUUUAUCAUG", "note": "[A3U C87U]", "polymerase ribozyme fitness (log ratio)": -0.956},
      {"variant": "GGUUCUUCUCGAUCUAACAAAAAAUACAAAUCUGCCACAAAGCUUGAGAGCAUCUUCGGAUGUAGAAGCGGCAGCCUUCGGUCGCGCGAUAGCGCCAACGUUCUCAACUAUGACACGCAAAACGCGUGCUCCGUUGAAUGGAGUUUAUCGUG", "note": "[A3U G25U C63U G67A G83C A150G]", "polymerase ribozyme fitness (log ratio)": "≤ -4.2"},
      {"variant": "GGUUCGUCUCGAUCUAACAAAAAAGACAAAUCUGGCACAAAGCUUGAGAUCAUCUUCGGAUGCAGAGGCGGCAGCCUGUGGUGGCGCGAUAGCGCCAACGUUCUCAACUAUGACACGCAAAACGCGUGCUCCGUUGAAUGUAGUUUAUCAUG", "note": "[A3U U6G C35G G50U U78G C79U G141U]", "polymerase ribozyme fitness (log ratio)": "≤ -4.2"},
      {"variant": "GGUUCUUCUCGAUCUAACAAAAAAGACAAAUCUGCCACAAAGCUUAAGAGCAUCUACGGAAGCAGAGGCGGCAGCCUGCGGUGGCGCGAUAGCGCCAAGGUUCUCAACUAUGACACGCAAAACGCGUGCUCCGUUGAAUGGAGUUUAUCAUG", "note": "[A3U G46A U56A U61A U78G C99G]", "polymerase ribozyme fitness (log ratio)": "≤ -4.2"},
      {"variant": "GGUUCUUCUCGAUCUAACAAAAAAGACAAAUCUGCCACAAAGCUUGAGAGCAUCUUCGAAUGCAGAGGCGGCAGCCUUCGGUGGCGCGAUAGCGCCAAUGUUCUCAACUAUGACACGCAAAACGCGUGCUCCGUUGAAUGGAGCUUAUCGUG", "note": "[A3U G59A C99U U144C A150G]", "polymerase ribozyme fitness (log ratio)": "≤ -4.2"},
      {"variant": "GGUUCUUCUCAAUGUAACAAAAAAGACAAAUCUGCCACAAAGCUUGAGAGCACCUUCGGAUGCAGAGGCGGCAGCGUUCGGUGGCGCGAUAGCGCCAACGUUCUCAACUAUGACACUCAAAACGCGUGCUCCGUUGAAUGGAGUUUAUCAUG", "note": "[A3U G11A C14G U53C C76G G117U]", "polymerase ribozyme fitness (log ratio)": "≤ -4.2"},
      {"variant": "GGUUCUUCUCGAUCUAACAAAAAAGACAAAUCUGCCACAAAGCUUGAGAGCAUCUUCGGAUGCAGAGGCCGCAGCCUUCGGUAGCGCGAUAGCGCCAACGUUCUCAGCUAUGACUCGCAAAGCGCGUGCUCCGUUGAAUGGAGUUUAUCAUG", "note": "[A3U G70C G83A A107G A115U A122G]", "polymerase ribozyme fitness (log ratio)": "≤ -4.2"},
      {"variant": "GGUUCUUCUCGAUCUAACAAAAAAGACAAAUCUGCCACAAAGCUUGAGAGCAUCUUCGCAUGCAGAGGCGGCAGCCUUCGGUGGUGCGAUAGCGCCAACGUUCUCAACUAUGACACGCAAAACGCAUGCUCCGUUGAAUGGAGUUUAUCAUG", "note": "[A3U G59C C85U G126A]", "polymerase ribozyme fitness (log ratio)": -0.686},
      {"variant": "GGUUCUUCUCGAUCUAACAAAAAAGACAAAUCUGCCACAAAGCUUGAGAGCAUCUUCGGAUGCAGAGACGGCAGCCUUCGGUGGCGCGAUAGCGCCAACGUUCUCAACUAUGACACGCAAAACGCGUGCUCCGUUGAAUGGAGUUUAUCAUG", "note": "[A3U G68A]", "polymerase ribozyme fitness (log ratio)": "≤ -4.2"},
      {"variant": "GGUUCUUCUCGAUCUAACAAAAAAGACAAAUCUGCCACAAAGCUUGAGAGCAUCUUCAGAUGCAGAGGCGGCAGCCUUCGGUGGCGGGAUAGCGCCAACGCUCUCAACUAUGUCACGCAAAACGCGUGCUGCGUUGAAUGGAGUUUAUCAUG", "note": "[A3U G58A C87G U101C A113U C131G]", "polymerase ribozyme fitness (log ratio)": "≤ -4.2"}
    ]}
  ]
}
